# PubChem BioAssay AID924 (National Center for Advancing Translational Sciences (NCATS), 2007)
# The campaign covered roughly 130,000 compounds. About 1,200 (0.92%) were called active. Inconclusive means that the source gave no clear call. Such entries were picked first, then a sample of the others. The call rests on the fitted dose curve; in most records, active means well fitted cell-killing curve with a large enough effect; inconclusive means small, poorly fitted or top-dose-only effect; inactive means no such curve, though single readings can be large or run the other way. A potency beside an inconclusive call is a rough fit, not a confirmed value.
# Assay: qHTS Screen for Compounds that Selectively Target Cancer Cells with p53 Mutations: Cytotoxicity of p53ts Cells at the Permissive Temperature; further: nearly all actives have a fitted effect of over 55% in size
# Settings: H1299-p53A138V at 32C, ATP luminescence viability, 24 h; series mostly up to 46.1 µM
# Method in brief: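 H1299-p53 A138V cells (temperature-sensitive p53) exposed 24 h to up to 46 uM compound at 32C, where p53 is wild-type in conformation. Viability read as ATP luminescence and normalised to DMSO and 100 uM tamoxifen. AC50 fitted with the Hill equation.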
# Potency means the concentration at half of the fitted maximal effect; tags describe the fitted curve by direction and shape.
row,SMILES,Potency
1,Cc1cccc(NC(=O)CSc2nc3ccccc3c3nc(CCc4c(C)n[nH]c4C)nn23)c1,"inconclusive: 35.5 µM [cytotoxic, single point]"
2,CCOC(=O)c1ccc(OCC(=O)c2ccc(O)cc2O)cc1,active: 12.6 µM
3,Cc1ccc(NC(=O)c2ccccc2F)nc1,"inconclusive: 10 µM [cytotoxic, partial curve]"
4,Cc1ccn2c(NC3CCCCC3)c(C(C)C)nc2c1,"inconclusive: 0.398 µM [cytotoxic, partial curve, poor fit]"
5,CCS(=O)(=O)c1oc(-c2ccc(F)cc2)nc1S(=O)(=O)c1ccc(Br)cc1,active: 7.08 µM
6,CCOC(=O)c1ccc(NC(=O)CC2C(=O)N(c3ccc(C)cc3)C(=O)N2C2CCCC2)cc1 (stereo not drawn),inactive
7,CCOc1ccccc1Nc1nnc(-c2cc3cc(Cl)ccc3oc2=O)s1,inactive
8,COc1cc(OC)cc(C(=O)Nc2ccc3c(c2)OCCO3)c1,active: 12.6 µM
9,CCn1cc(C2Nc3ccccc3C(=O)N2O)c(C)n1 (stereo not drawn),"inconclusive: 20 µM [cytotoxic, single point]"
10,CC(=O)Nc1cccc(-c2cnc3ccccc3n2)c1,"inconclusive: 20 µM [cytotoxic, single point]"
11,Cc1cc(C(=O)CN2C(=O)c3ccccc3S2(=O)=O)c(C)n1CC1CCCO1 (stereo not drawn),active: 2.51 µM
12,Cc1cccc(CCNC(=O)c2ccc3c(c2)nc2n3CCCCC2)c1,active: 12.6 µM
13,Cc1ccc(-n2c(C)cc(C(=O)COC(=O)c3c(C)noc3C)c2C)cc1,"inconclusive: 12.6 µM [cytotoxic, partial curve]"
14,O=C(Nc1cccc2c1[nH]c1ccccc12)C(F)(F)F,"inconclusive: 3.16 µM [cytotoxic, full curve, poor fit]"
15,COc1ccc(-n2nnc(C(=O)Nc3ccccc3F)c2N)cc1,inactive
16,Cc1ccc(Cl)cc1N1CCN(C(=O)CCCCCn2c(=O)[nH]c3ccccc3c2=O)CC1,"inconclusive: 25.1 µM [cytotoxic, single point]"
17,CCc1c(C)sc(NC(=O)c2cc(-c3cc(OC)ccc3OC)on2)c1C#N,inactive
18,C=CC1=C(C)C2=Cc3c(C=C)c(C)c4[n]3[Sn+2][n]3c(c(C)c(CCC(=O)O)c3=CC3=NC(=C4)C(C)=C3CCC(=O)O)=CC1=N2,inactive
19,N#Cc1ccccc1NC(=O)c1ccc(-c2ccccc2Cl)o1,"inconclusive: 15.8 µM [cytotoxic, single point]"
20,CCCCn1c(NC(=O)c2ccccc2)c(C#N)c2nc3ccccc3nc21,"inconclusive: 31.6 µM [cytotoxic, single point]"
21,CCCNC(=O)c1cc(-c2ccc(O)cc2)on1,"inconclusive: 12.6 µM [cytotoxic, partial curve]"
22,Cc1ccc(-c2nnc(SCC(=O)NCc3ccccc3)nc2-c2ccc(C)cc2)cc1,"inconclusive: 15.8 µM [cytotoxic, partial curve, poor fit]"
23,O=C(CCS(=O)(=O)c1nc(-c2cccs2)cc(C(F)(F)F)n1)Nc1ccc(F)c(Cl)c1,"inconclusive: 20 µM [cytotoxic, single point]"
24,Cc1ccc2[nH]c(C(=O)Nc3ccccc3)cc2c1,"inconclusive: 12.6 µM [cytotoxic, partial curve]"
25,O=C(Nc1nnc(C(F)(F)F)s1)c1cccnc1,"inconclusive: 11.2 µM [cytotoxic, partial curve]"

row,SMILES,Potency
1,COc1cccc(NC(=O)c2sc3nc4n(c(=O)c3c2C)CCC4)c1,"inconclusive: 12.6 µM [cytotoxic, partial curve]"
2,Cc1ccc2nc3ccc(N4CCN(C)CC4)nn3c(=O)c2c1,active: 3.98 µM
3,Cc1ccccc1-n1c(C)cc(/C=C2\NC(=O)NC2=O)c1C,active: 15.8 µM
4,Cc1cc(C)c2c(=O)[nH]c(SCC(=O)Nc3ccccc3)nc2n1,inactive
5,Cc1ccc(-n2nc3c(N4CCC(C(=O)NC(C)c5ccccc5)CC4)nnc(C)c3c2C)cc1 (stereo not drawn),"inconclusive: 25.1 µM [cytotoxic, single point]"
6,C/C(=N\NC(=O)CCc1c[nH]c2ccccc12)c1cccc([N+](=O)[O-])c1,"inconclusive: 0.0501 µM [cytotoxic, full curve, poor fit]"
7,COc1cn(CC(=O)Nc2ccccc2)c(CN2CCCCC2)cc1=O,inactive
8,O=C(Nc1cccc(NC(=O)c2nccc3ccccc23)c1)c1ccco1,"inconclusive: 10 µM [cytotoxic, partial curve]"
9,COc1ccc(-c2nsc3c(N4CCCC4)ncnc23)cc1,"inconclusive: 1.26 µM [cytotoxic, full curve]"
10,CN(C)c1ccc(-c2nc(NC3CCNCC3)c3ccccc3n2)cc1,"inconclusive: 10 µM [cytotoxic, partial curve]"
11,O=C(CSc1c2c(nc3cc(Cl)ccc13)CCCC2)N1CCN(c2ccccc2F)CC1,"inconclusive: 25.1 µM [cytotoxic, single point]"
12,COc1ccccc1C(=O)Nc1ccc2c(c1)OCCO2,active: 15.8 µM
13,O=C(CSc1nnc(-c2ccccc2F)o1)Nc1ccccc1Cl,"inconclusive: 12.6 µM [cytotoxic, partial curve]"
14,CCCc1nnc(NC(=O)CN2C(=O)c3ccccc3S2(=O)=O)s1,"inconclusive: 10 µM [cytotoxic, partial curve]"
15,COc1ccc2c(c1)nc1n2CN(CC2CCCO2)CN1Cc1ccccc1 (stereo not drawn),"inconclusive: 15.8 µM [cytotoxic, partial curve]"
16,O=C(c1cccc(Cl)c1)n1nc(-c2cccnc2)nc1NCc1ccccc1,inactive
17,Cc1ccc(Cn2nnc3c(=O)n(Cc4cccc(C)c4)cnc32)cc1,inactive
18,Nc1ccc2nc(-c3ccc(O)cc3)sc2c1,active: 0.631 µM
19,Cc1sc(NC(=O)c2ccc(Cl)s2)c(C(N)=O)c1C,"inconclusive: 20 µM [cytotoxic, single point]"
20,Cc1ccc(C(=O)/C=C/Nc2ccccc2C(N)=O)o1,active: 12.6 µM
21,COc1ccc(/C=C2\SC(=N)N(c3nccs3)C2=O)cc1OC,"inconclusive: 22.4 µM [cytotoxic, single point]"
22,CCc1cccc(NC(=O)c2ccc3c(=O)n4nc(Nc5ccccc5OC)sc4nc3c2)c1,active: 3.16 µM
23,COc1cccc(-c2nccc(N(C)Cc3ccco3)n2)c1,active: 10 µM
24,CCN(CCCNC(=O)c1cc2c(=O)[nH]c3ccc(C)cc3c2s1)Cc1ccccc1,active: 12.6 µM
25,Cc1cccc(CNC(=O)c2ccc(Cn3c(SCc4ccccc4)nc4cccnc43)cc2)c1,"inconclusive: 22.4 µM [cytotoxic, partial curve, poor fit]"

row,SMILES,Potency
1,COc1ccc(-n2nc3c(c2NC(=O)c2cc4ccccc4oc2=O)CS(=O)(=O)C3)cc1,inactive
2,CC(C)c1cc(C(=O)Nc2cccc(Cl)c2)no1,"inconclusive: 31.6 µM [cytotoxic, single point]"
3,CCc1ccc(Sc2cc(C(=O)NCCCN3CCCC(C)C3)c3ccccc3n2)cc1 (stereo not drawn),"inconclusive: 12.6 µM [cytotoxic, single point]"
4,CC(C)c1nn2c(=O)cc(COC(=O)c3ccc(NC(=O)c4ccccc4Cl)cc3)nc2s1,"inconclusive: 1.26 µM [cytotoxic, full curve, poor fit]"
5,COc1ccc(CCNC(=O)Cn2nnc(-c3cccc(C(F)(F)F)c3)n2)cc1OC,inactive
6,Cc1ccc(-n2nc(CO)c(C(=O)NCCO)n2)cc1,"inconclusive: 12.6 µM [cytotoxic, partial curve]"
7,Cc1ccccc1C(=O)NCc1ccc2c(c1)CCN2C(=O)c1ccccc1,inactive
8,O=C(Cn1cnc2c(oc3ccccc32)c1=O)N1CCCc2ccccc21,inactive
9,O=c1nc2c(-c3ccccc3F)n[nH]n2c2ccccc12,"inconclusive: 10 µM [cytotoxic, partial curve]"
10,CCOC(=O)c1nn(-c2ccc3c(c2)OCO3)cc1O,"inconclusive: 12.6 µM [cytotoxic, partial curve]"
11,CCC1=C2CC[C@H]3C(=O)N(CC)C(=O)[C@H]3[C@H]2[C@@]2(Cc3ccccc3)C(=NCC3CC3)OC(=O)N2C1=O,inactive
12,CCCC[C@@H]1C[C@H]1C(NC(=O)c1cccnc1)c1ccc(Cl)cc1 (stereo partly drawn),"inconclusive: 7.94 µM [cytotoxic, partial curve]"
13,Cc1ccc(NC(=O)C(Cc2ccccc2)n2cccc2)c(C)c1 (stereo not drawn),inactive
14,O=C(c1ccc2c(c1)N(Cc1cccc(Cl)c1)C(=O)c1ccccc1S2(=O)=O)N1CCC(Cc2ccccc2)CC1,inactive
15,COc1cc(Cl)c(C)cc1Nc1c2c(nc3ccccc13)CCC2,"inconclusive: 15.8 µM [cytotoxic, single point]"
16,Cc1ccc(S(=O)(=O)NCC(c2ccco2)N2CCN(c3ccccc3F)CC2)cc1 (stereo not drawn),inactive
17,COc1cccc(CNC(=O)Cn2c(SCC(=O)Nc3ccc(F)cc3)nc3ccccc32)c1,"inconclusive: 17.8 µM [cytotoxic, partial curve]"
18,CCCn1nc(NC(=O)c2cccs2)c2cc3cc(OC)ccc3nc21,"inconclusive: 25.1 µM [cytotoxic, single point]"
19,CC(C)Oc1ccc(C(=O)Nc2ccc(N(C)C)cc2)cc1,"inconclusive: 6.31 µM [cytotoxic, partial curve]"
20,O=C(Nc1ccc(N2CCCC2)cc1)c1cccc(F)c1,active: 7.94 µM
21,O=C(NC1=NCCS1)C1COc2ccccc2O1 (stereo not drawn),active: 12.6 µM
22,O=C(NC1CC1)c1ccc(Cn2c(SCc3ccccc3F)nc3cccnc32)cc1,active: 15.8 µM
23,O=C(NCCc1ccccc1)NC1CCCCC1,"inconclusive: 20 µM [cytotoxic, single point]"
